Results as given in a collection of fitness landscapes (doi:10.1038/s41467-024-54723-y).
Whole data set: some 18,000 sequences, median “TetR repression strength (sort-seq, GFP reporter)” near 0.23, cut for the highest 2% near 0.68. Some of the results follow.

Target: TetR (class B, Tn10) (UniProt P04483)
Assay: TetR repression strength (sort-seq, GFP reporter) (relative to tetO2 = 1); higher = stronger repression
Conditions: E. coli
How it was run: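 Escherichia coli SIG10-MAX cells carried a low-copy plasmid library in which eight operator positions were randomized between a constitutive promoter and sfGFP, and TetR was expressed constitutively. After 5 h of growth at 37 °C in LB with 50 µg/mL chloramphenicol, 10^6 cells were FACS-sorted into 13 fluorescence bins, and each bin was Illumina-sequenced. Repression strength was the top bin index plus one minus the read-weighted mean bin, divided by the value for the unaltered operator. Across three independent transformations, only library members with ≥30 reads in every replicate and a CV ≤0.5 were averaged.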

UniProt P04483, sequence (P04483 whole entry): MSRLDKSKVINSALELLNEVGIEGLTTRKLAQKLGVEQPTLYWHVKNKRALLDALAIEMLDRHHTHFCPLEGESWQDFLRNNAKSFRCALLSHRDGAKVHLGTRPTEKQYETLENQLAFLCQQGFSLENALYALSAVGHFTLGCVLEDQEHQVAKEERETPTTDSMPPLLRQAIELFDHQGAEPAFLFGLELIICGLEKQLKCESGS

| Sequence | TetR repression strength |
| --- | --- |
| TCCCCAAAAGTGATAGAGA | 0.365 |
| TCCCTAGGAGTCGAGGAGA | 0.0868 |
| TCCCTATTAGTGGATGAGA | 0.344 |
| TCCCCTAGAGTGCTAGAGA | 0.0993 |
| TCCCCATGAGTTAGTGAGA | 0.175 |
| TCCCGTTAAGTGAACGAGA | 0.369 |
| TCCCTCCAAGTAAGGGAGA | 0.415 |
| TCCCTGAGAGTGTCTGAGA | 0.309 |
| TCCCATTGAGTTGCTGAGA | 0.153 |
| TCCCACCTAGTTGTAGAGA | 0.3 |
| TCCCGCGCAGTGCTCGAGA | 0.156 |
| TCCCATCAAGTGGATGAGA | 0.255 |
| TCCCACCGAGTGTAGGAGA | 0.149 |
| TCCCGCTGAGTCCTTGAGA | 0.152 |
| TCCCGTGTAGTTCCAGAGA | 0.27 |
| TCCCAGGTAGTACAGGAGA | 0.408 |
| TCCCCTGCAGTGGTTGAGA | 0.265 |
| TCCCTAGGAGTATGGGAGA | 0.184 |
| TCCCGCTGAGTAATGGAGA | 0.218 |
| TCCCAACCAGTGTGGGAGA | 0.204 |
| TCCCAGAGAGTGACGGAGA | 0.157 |
| TCCCAACAAGTGTTTGAGA | 0.0239 |
| TCCCTGCCAGTGCGGGAGA | 0.186 |
| TCCCAATTAGTCTATGAGA | 0.182 |
| TCCCGTAAAGTTGCAGAGA | 0.0543 |
| TCCCCGTCAGTCTTCGAGA | 0.417 |

| Sequence | TetR repression strength |
| --- | --- |
| TCCCCTCGAGTTGGTGAGA | 0.04 |
| TCCCTTTCAGTAGAGGAGA | 1.01 |
| TCCCCGGCAGTGTGGGAGA | 0.321 |
| TCCCTAGGAGTCACGGAGA | 0.315 |
| TCCCCGTAAGTTGCCGAGA | 0.205 |
| TCCCGGGAAGTGAGAGAGA | 0.202 |
| TCCCGGTGAGTACGCGAGA | 0.145 |
| TCCCAAGCAGTGACCGAGA | 0.232 |
| TCCCGTCGAGTGCGAGAGA | 0.247 |
| TCCCCGTTAGTATCGGAGA | 0.00823 |
| TCCCAAACAGTAAGCGAGA | 0.00622 |
| TCCCCGCTAGTGGGAGAGA | 0.1 |
| TCCCTGCAAGTGATTGAGA | 0.356 |
| TCCCCGCTAGTGTAGGAGA | 0.366 |
| TCCCATAAAGTTGTGGAGA | 0.24 |
| TCCCATGTAGTCTCAGAGA | 0.195 |
| TCCCCATAAGTGTGAGAGA | 0.221 |
| TCCCGCAGAGTTTCAGAGA | 0.238 |
| TCCCAGACAGTTATTGAGA | 0.134 |
| TCCCGTCCAGTCTCTGAGA | 0.377 |
| TCCCGCGCAGTGGCGGAGA | 0.196 |
| TCCCTTAAAGTGATAGAGA | 0.406 |
| TCCCTCATAGTGTGGGAGA | 0.176 |
| TCCCTTCTAGTCGCCGAGA | 0.42 |
| TCCCATTGAGTGGGAGAGA | 0.356 |
| TCCCACTTAGTTGGGGAGA | 0.201 |

| Sequence | TetR repression strength |
| --- | --- |
| TCCCTATGAGTGGTAGAGA | 0.288 |
| TCCCAGAGAGTATATGAGA | 0.104 |
| TCCCATAGAGTGCATGAGA | 0.263 |
| TCCCGGCAAGTTTTGGAGA | 0.283 |
| TCCCTAGTAGTAGGTGAGA | 0.0518 |
| TCCCGTGGAGTGGAAGAGA | 0.353 |
| TCCCCAAAAGTTTTGGAGA | 0.276 |
| TCCCTGTGAGTATGGGAGA | 0.219 |
| TCCCTATCAGTTGTTGAGA | 0.441 |
| TCCCGGGCAGTGGAAGAGA | 0.388 |
| TCCCGGCAAGTGTTTGAGA | 0.11 |
| TCCCGCTGAGTAACTGAGA | 0.247 |
| TCCCCATAAGTCGTAGAGA | 0.0346 |
| TCCCAGGCAGTGCGTGAGA | 0.559 |
| TCCCGAATAGTAGAGGAGA | 0.104 |
| TCCCAAGGAGTCACTGAGA | 0.216 |
| TCCCTGGGAGTCAGAGAGA | 0.548 |
| TCCCAATTAGTACTCGAGA | 0.374 |
| TCCCCGACAGTGCGAGAGA | 0.104 |
| TCCCCACTAGTGCTAGAGA | 0.311 |
| TCCCTTACAGTGGAAGAGA | 0.133 |
| TCCCGATAAGTCGGCGAGA | 0.28 |
| TCCCGTTGAGTTGCAGAGA | 0.379 |
| TCCCTAGTAGTGATAGAGA | 0.533 |
| TCCCGCCCAGTTCCTGAGA | 0.369 |
| TCCCAGAGAGTGGCAGAGA | 0.278 |

| Sequence | TetR repression strength |
| --- | --- |
| TCCCATCGAGTCCAAGAGA | 0.229 |
| TCCCATAGAGTCCGGGAGA | 0.365 |
| TCCCAACAAGTTCTGGAGA | 0.148 |
| TCCCGTTTAGTTTGAGAGA | 0.217 |
| TCCCGGCTAGTGATAGAGA | 0.477 |
| TCCCGTTCAGTCGTTGAGA | 0.339 |
| TCCCTCGCAGTGTGTGAGA | 0.243 |
| TCCCGTTTAGTCACCGAGA | 0.00432 |
| TCCCCTAGAGTTGGCGAGA | 0.415 |
| TCCCGAGTAGTTAGTGAGA | 0.111 |
| TCCCGCTCAGTCCTCGAGA | 0.0498 |
| TCCCCAGAAGTAGGTGAGA | 0.203 |
| TCCCGCAAAGTCTCAGAGA | 0.283 |
| TCCCGTGAAGTGAACGAGA | 0.0691 |
| TCCCATGGAGTGGATGAGA | 0.28 |
| TCCCGCGCAGTGTGTGAGA | 0.0407 |
| TCCCATGCAGTGTCAGAGA | 0.205 |
| TCCCATTAAGTGTAGGAGA | 0.275 |
| TCCCTCGAAGTTAAGGAGA | 0.359 |
| TCCCAGCCAGTCGAGGAGA | 0.248 |
| TCCCGCGCAGTGGCTGAGA | 0.199 |
| TCCCGGGCAGTGCAAGAGA | 0.609 |
| TCCCCCAGAGTTCGAGAGA | 0.191 |
| TCCCGTACAGTACGGGAGA | 0.173 |
| TCCCGGCGAGTGTGGGAGA | 0.449 |
| TCCCTATAAGTGGAAGAGA | 0.404 |

| Sequence | TetR repression strength |
| --- | --- |
| TCCCTCTTAGTGTGGGAGA | 0.0777 |
| TCCCAGCAAGTCGACGAGA | 0.109 |
| TCCCACGGAGTAGTAGAGA | 0.207 |
| TCCCTTACAGTGATGGAGA | 0.219 |
| TCCCCGCTAGTAAACGAGA | 0.477 |
| TCCCACTTAGTGTTGGAGA | 0.0188 |
| TCCCCATTAGTTGGCGAGA | 0.242 |
| TCCCCCTCAGTAGGGGAGA | 0.15 |
| TCCCGAGCAGTACCTGAGA | 0.154 |
| TCCCTGGAAGTAATTGAGA | 0.181 |
| TCCCGGGCAGTCTATGAGA | 0.246 |
| TCCCTCATAGTTATGGAGA | 0.223 |
| TCCCCTGTAGTGTTTGAGA | 0.396 |
| TCCCTGTGAGTTGAGGAGA | 0.19 |
| TCCCTGGGAGTTTAGGAGA | 0.302 |
| TCCCTGCGAGTGATAGAGA | 0.618 |
| TCCCCGCCAGTGGTCGAGA | 0.25 |
| TCCCAACAAGTGGCAGAGA | 0.0484 |
| TCCCGGGAAGTCCGCGAGA | 0.144 |
| TCCCGGTCAGTTTGTGAGA | 0.308 |
| TCCCGTCGAGTATTGGAGA | 0.293 |
| TCCCGATAAGTGAGTGAGA | 0.375 |
| TCCCATGGAGTTTCGGAGA | 0.219 |
| TCCCAGCGAGTCATCGAGA | 0.17 |
| TCCCACCGAGTCGCGGAGA | 0.189 |
| TCCCACACAGTTGGGGAGA | 0.0814 |

| Sequence | TetR repression strength |
| --- | --- |
| TCCCGGGGAGTATATGAGA | 0.131 |
| TCCCATGGAGTTCATGAGA | 0.0516 |
| TCCCAGTCAGTCTAGGAGA | 0.207 |
| TCCCTTATAGTCGCGGAGA | 0.142 |
| TCCCGTAGAGTTGTCGAGA | 0.0979 |
| TCCCGCTGAGTTTTAGAGA | 0.245 |
| TCCCAGCAAGTTAGAGAGA | 0.53 |
| TCCCGGGCAGTACACGAGA | 0.318 |
| TCCCATTGAGTACGGGAGA | 0.227 |
| TCCCGAGAAGTGCTGGAGA | 0.428 |
| TCCCTAGGAGTGTTAGAGA | 0.2 |
| TCCCAGCTAGTTGGGGAGA | 0.262 |
| TCCCTATAAGTCATCGAGA | 0.687 |
| TCCCGCTTAGTGTTAGAGA | 0.03 |
| TCCCGGGTAGTGAAGGAGA | 0.262 |
| TCCCTGGGAGTAAGCGAGA | 0.357 |
| TCCCCTGCAGTTGGCGAGA | 0.247 |
| TCCCGGGCAGTGCTAGAGA | 0.309 |
| TCCCCGGAAGTAAGGGAGA | 0.128 |
| TCCCTATCAGTGTAGGAGA | 0.484 |
| TCCCGGTGAGTGTGCGAGA | 0.263 |
| TCCCGTGCAGTGGAAGAGA | 0.497 |
| TCCCCTGAAGTGTGCGAGA | 0.299 |
| TCCCCGAAAGTGGGTGAGA | 0.161 |
| TCCCTAAGAGTTAATGAGA | 0.217 |
| TCCCTAATAGTGTAAGAGA | 0.0478 |

| Sequence | TetR repression strength |
| --- | --- |
| TCCCTAAAAGTTGGGGAGA | 0.168 |
| TCCCCTGAAGTCCACGAGA | 0.305 |
| TCCCGGGGAGTTCCCGAGA | 0.0105 |
| TCCCGATAAGTACTCGAGA | 0.212 |
| TCCCACTCAGTGAGAGAGA | 0.514 |
| TCCCTAGTAGTACGCGAGA | 0.0159 |
| TCCCCAAAAGTAGATGAGA | 0.081 |
| TCCCAGACAGTTGGGGAGA | 0.0203 |
| TCCCTCGCAGTGGTGGAGA | 0.223 |
| TCCCGTGTAGTTTTTGAGA | 0.207 |
| TCCCTGTCAGTTGACGAGA | 0.225 |
| TCCCGTTCAGTCTAAGAGA | 0.181 |
| TCCCTAGGAGTCTGTGAGA | 0.318 |
| TCCCGCAAAGTATGAGAGA | 0.0691 |
| TCCCATTGAGTGCAGGAGA | 0.466 |
| TCCCGTTCAGTATGAGAGA | 0.157 |
| TCCCGTTGAGTGCTTGAGA | 0.223 |
| TCCCTGTAAGTGGACGAGA | 0.166 |
| TCCCGAAAAGTCTTGGAGA | 0.171 |
| TCCCGGTTAGTGCGTGAGA | 0.192 |
| TCCCGTCAAGTAGCCGAGA | 1.02 |
| TCCCGAGCAGTTCATGAGA | 0.225 |
| TCCCGTATAGTCCGCGAGA | 0 |
| TCCCTGGCAGTTGTAGAGA | 0.235 |
| TCCCAGTTAGTTGGCGAGA | 0.398 |
| TCCCAGAAAGTAAAAGAGA | 0.504 |

| Sequence | TetR repression strength |
| --- | --- |
| TCCCGCCAAGTATAAGAGA | 0.264 |
| TCCCGCTCAGTGTTAGAGA | 0.433 |
| TCCCAGACAGTGCGGGAGA | 0.264 |
| TCCCCGGCAGTGACGGAGA | 0.136 |
| TCCCGGACAGTGCGCGAGA | 0.131 |
| TCCCACCCAGTTGTTGAGA | 0.0405 |
| TCCCATGGAGTTACGGAGA | 0.122 |
| TCCCAGGAAGTGAGAGAGA | 0.221 |
| TCCCAAGAAGTTAGCGAGA | 0.104 |
| TCCCAAAGAGTGTGCGAGA | 0.302 |
| TCCCGTCAAGTCCAAGAGA | 0.051 |
| TCCCAGTCAGTTGAAGAGA | 0.858 |
| TCCCCAGGAGTAGGAGAGA | 0.218 |
| TCCCGAGAAGTGTGTGAGA | 0.239 |
| TCCCGTCAAGTTCAAGAGA | 0 |
| TCCCTTAGAGTTAAAGAGA | 0.352 |
| TCCCGTCTAGTGGTAGAGA | 0.52 |
| TCCCACAGAGTAGCCGAGA | 0.0299 |
| TCCCGAGGAGTTTCCGAGA | 0.13 |
| TCCCGAGGAGTAGCGGAGA | 0.628 |
| TCCCACCTAGTCGGGGAGA | 0.191 |
| TCCCTGTGAGTGAGAGAGA | 0.407 |
